PMC4336329 (PLoS ONE, 2015)
About 14,000 (4.5%) of roughly 310,000 compounds showed an effect of 50% or more. The effect is printed as a negative number. Some of the results follow.

These compounds were tested against human ether-à-go-go-related gene (hERG) potassium channel (human, UniProt Q12809) (assay: primary screen, population patch clamp on CHO cells stably expressing hERG).
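Note: peak tail current of the secondary pulse compared with the same well before compound.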

Sequence of human ether-à-go-go-related gene (hERG) potassium channel (Q12809 whole entry, looked up): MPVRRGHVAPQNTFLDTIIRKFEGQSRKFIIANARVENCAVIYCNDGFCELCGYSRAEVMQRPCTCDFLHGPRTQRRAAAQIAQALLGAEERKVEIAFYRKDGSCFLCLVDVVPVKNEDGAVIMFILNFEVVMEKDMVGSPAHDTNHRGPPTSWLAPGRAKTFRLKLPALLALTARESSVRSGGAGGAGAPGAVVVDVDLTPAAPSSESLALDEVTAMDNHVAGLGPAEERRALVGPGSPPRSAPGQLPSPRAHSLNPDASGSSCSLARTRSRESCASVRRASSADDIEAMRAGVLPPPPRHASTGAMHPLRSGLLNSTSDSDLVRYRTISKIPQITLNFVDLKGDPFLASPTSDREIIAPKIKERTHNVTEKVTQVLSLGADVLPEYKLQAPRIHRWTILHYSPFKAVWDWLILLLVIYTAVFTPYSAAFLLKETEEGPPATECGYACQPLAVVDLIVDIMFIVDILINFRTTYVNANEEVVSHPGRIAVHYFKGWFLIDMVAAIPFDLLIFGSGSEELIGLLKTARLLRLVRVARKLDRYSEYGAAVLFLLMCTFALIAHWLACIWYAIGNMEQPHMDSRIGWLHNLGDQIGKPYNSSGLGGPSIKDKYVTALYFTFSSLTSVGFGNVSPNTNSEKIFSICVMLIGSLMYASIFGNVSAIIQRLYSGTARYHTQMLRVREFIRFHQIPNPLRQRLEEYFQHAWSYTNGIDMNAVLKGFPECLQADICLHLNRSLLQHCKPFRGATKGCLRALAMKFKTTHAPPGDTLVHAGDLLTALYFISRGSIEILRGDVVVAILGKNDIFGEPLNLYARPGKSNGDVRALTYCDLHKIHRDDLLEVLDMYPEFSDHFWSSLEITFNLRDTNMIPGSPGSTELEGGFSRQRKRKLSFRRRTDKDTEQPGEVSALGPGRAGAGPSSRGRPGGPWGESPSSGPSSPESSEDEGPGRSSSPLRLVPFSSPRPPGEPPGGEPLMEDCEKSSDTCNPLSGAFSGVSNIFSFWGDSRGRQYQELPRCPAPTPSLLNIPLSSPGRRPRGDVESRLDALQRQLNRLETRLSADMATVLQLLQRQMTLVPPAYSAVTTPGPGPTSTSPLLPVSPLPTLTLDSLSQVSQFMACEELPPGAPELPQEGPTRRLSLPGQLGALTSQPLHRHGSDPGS

Row | Structure (SMILES) | hERG current change (%, negative = inhibition) at 10uM [%]
1 | COc1cccc(-c2cc(C(F)(F)F)nc(N3CCOCC3)n2)c1 | 7.16
2 | COc1ccc2nc(N/C(N)=N/C(=S)Nc3ccc(C)c(C)c3)nc(C)c2c1 | 10.2
3 | CCN(C(=O)Cn1c(=O)oc2ccccc21)c1cccc(C(F)(F)F)c1 | 1.62
4 | COc1cc(OC)cc(-c2cc3ccc(OC)cc3cn2)c1 | 10.4
5 | COc1ccc2c(c1OC)C(=O)N1c3ccccc3C(=O)N(c3ccccc3F)C21 (stereo not drawn) | 5.3
6 | COc1cnc(-c2ccccc2)nc1Oc1ccc(Cl)cc1C | -3.13
7 | CCC(=O)Nc1ccc2c(c1)ncn2-c1ccccc1OC | -9.67
8 | S=C(NCCCn1ccnc1)Nc1cccc(Cl)c1 | -26.5
9 | O=C(NCc1ccccn1)C1C2C=CC(C2)C1C(=O)Nc1ccc(F)cc1 (stereo not drawn) | -2.92
10 | Cc1ccc(O)c(CNc2nc3ccccc3n2C(C)C)c1 | 12.9
11 | CC(C)N1CCc2c(sc(NC(=O)Cc3ccccc3)c2C#N)C1.Cl | -16
12 | COc1ccc(CNC(=O)CSc2n[nH]c(N)n2)cc1OC | -77.5
13 | Cc1nc(N)nc(N)c1CCCc1ccc(Cl)c(Cl)c1 | -16.6
14 | COc1ccc(C(=O)OCC(=O)Nc2cc(S(=O)(=O)N3CCOCC3)ccc2N2CCCC2)cc1 | -3.54
15 | Cc1ccc(C(=O)N[C@H](C(=O)OCC(=O)NC2CCS(=O)(=O)C2)C(C)C)cc1 (stereo partly drawn) | 11.6
16 | O=C(CNC(=O)c1ccccc1F)Nc1ccncc1 | 22.8
17 | COc1cc(C(=O)NCc2ccc(-n3cccc3)cc2)cc(OC)c1OC | 21.3
18 | CCN1CCN(C(=S)c2ccc(Cl)c(Cl)c2)CC1 | -33.1
19 | CCCc1nnc(NC(=O)CCC(=O)NCCc2ccc(OC)c(OC)c2)s1 | -7.94

Row | Structure (SMILES) | hERG current change (%, negative = inhibition) at 10uM [%]
20 | O=C(Cn1nc(-c2ccc(Cl)cc2)ccc1=O)NCC1CCCO1 (stereo not drawn) | -14.9
21 | COc1cc(C(=O)NC(=S)Nc2nc(-c3ccc(F)cc3)cs2)cc(OC)c1OC | 12.5
22 | O=C(c1ccco1)N1CCN(C(=O)c2ccccc2Oc2ccccc2)CC1 | -30.3
23 | Cc1cc2ncc(-c3ncc(C(F)(F)F)cc3Cl)cn2n1 | -6.94
24 | N#CCCSc1ncnc2c1oc1ccccc12 | 1.66
25 | COc1ccc(NC(=O)N[C@@H](Cc2ccccc2)C(=O)NN)cc1 | 4.45
26 | CCN(CC(=O)Nc1ccccc1OC)C(=O)CC1CC2CCC1C2 (stereo not drawn) | -10.6
27 | COC(=O)c1ccc(NC(=O)c2ccccc2)o1 | 5.33
28 | C=CCNC(=O)NC(=O)COC(=O)[C@H](C)NS(=O)(=O)c1c(C)c(C)cc(C)c1C | -11.8
29 | CCOc1ccc(Br)cc1S(=O)(=O)Nc1ncn[nH]1 | 26
30 | Cc1ccc(S(=O)(=O)N2CCCC(CCC(=O)NCc3ccccc3F)C2)s1 (stereo not drawn) | -50.7
31 | COc1ccccc1NC(=O)c1nn(-c2ccc(OC(F)(F)F)cc2)ccc1=O | 11.5
32 | COc1cccc(NC(=O)N[C@@H](Cc2ccccc2)C(=O)O)c1 | 14
33 | Cc1ccc(C(=O)NC(=S)Nc2cc(-c3nc4ccccc4s3)ccc2C)cc1 | 12.7
34 | Cc1cccc(NC(=O)c2nc[nH]c2C(=O)N2CCN(C(=O)OC(C)(C)C)CC2)c1 | -19.3
35 | O=C(O)C(Cc1c[nH]c2ccccc12)NS(=O)(=O)c1ccc(Cl)c(C(F)(F)F)c1 (stereo not drawn) | 10
36 | Cc1csc(Cn2c(CN(C)C)nc3ccccc3c2=O)n1 | -12.3
37 | Cc1ccc(-n2c(C)csc2=N)cc1 | 5.7
38 | COc1ccc(S(=O)(=O)N2CCOCC2)cc1NC(=O)CN1CCC(Cc2ccccc2)CC1 | -3.87

Row | Structure (SMILES) | hERG current change (%, negative = inhibition) at 10uM [%]
39 | CN(C)S(=O)(=O)c1ccc(C(=O)NCc2ccccn2)cc1 | 12
40 | CCOC(=O)N1CCN(C(=O)Cc2ccc(-n3c(=O)[nH]c4ccccc4c3=O)cc2)CC1 | -5.48
41 | O=C(c1cc(Br)ccc1O)N1CCN(S(=O)(=O)Cc2ccccc2)CC1 | -8.72
42 | Cc1noc(C)c1C(=O)Nc1sc2c(c1C(N)=O)CCC2 | 1.7
43 | Cc1cccc(CS(=O)(=O)c2ncc(CO)n2C)c1 | 16
44 | O=C(CSc1ccccn1)Nc1ccc2c(c1)C(=O)c1ccccc1C2=O | 18.5
45 | CCNC(=S)NNc1nnc(-c2ccccc2)c(-c2ccccc2)n1 | 4.26
46 | Cn1c(SCc2ccc(C#N)cc2Cl)nc2ccccc21 | -36.5
47 | O=C(COC(=O)c1ccc([N+](=O)[O-])cc1Cl)Nc1cccnc1Cl | 1.15
48 | CCCCCN1C(=O)/C(=C/c2c(N3CCc4ccccc4C3)nc3ccccn3c2=O)SC1=S | 18.4
49 | CC(=O)c1ccc(NC(=O)COc2ccccc2C(=O)Nc2ccc(C)cn2)cc1 | 9.59
50 | Cc1ccc(NC(=O)CCC(=O)NNS(=O)(=O)c2ccccc2)cc1C | -9.66
51 | CC(C)(C)c1nn(-c2ccccc2)c2[nH]c(=O)c(CNc3ccc4c(c3)OCCO4)cc12 | -4.99
52 | COc1ccc(-c2coc3cc(O)ccc3c2=O)cc1O | -1.36
53 | CCOC(=O)N1CCN(C(=O)C2CCN(S(=O)(=O)c3ccc(Br)s3)CC2)CC1 | -35.2
54 | Cc1cccn2c(=O)c3cc(C(=O)NCCCN4CCCC4=O)n(C)c3nc12 | -11.2
55 | Cc1ccc(N2CC(NS(=O)(=O)c3cccnc3)CC2=O)cc1C (stereo not drawn) | 19.7
56 | O=C1OC(Nc2ncccn2)c2ccccc21 (stereo not drawn) | 19.6
57 | COc1ccc(NC(=S)Nc2cc(C)cc(C)n2)cc1OC | 9.39
